Measurements published in PubChem BioAssay AID1159614 (National Center for Advancing Translational Sciences (NCATS), 2016).
Out of some 45,000 compounds screened, about 65 (0.1%) were called active. Calls follow the shape of the dose curve; as a rule, active = well fitted activation curve with a large enough effect; inconclusive = small, poorly fitted or top-dose-only effect; inactive = no such curve, though single readings can be large or run the other way. The list shows a part of the results.

biological target: Galactocerebrosidase (Homo sapiens) (UniProt P54803); test: A Novel Cell-Based Assay to Identify Small Molecules for B -Galactocerebrosidase; settings: 145M-Twi-hGALC-G270D cells (Twitcher mouse brain line with human GALC G270D), HMU-beta-Gal fluorescence, 48 h; series mostly up to 57.5 µM; activation: at the top concentration; also: 0% is about no effect; nearly all actives have a fitted effect of over 65% in size
How it was run: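 Mutant human GALC (G270D), stably expressed in a Twitcher mouse brain cell line lacking endogenous GALC, is measured in live-treated cells via 6-hexadecanoylamino-4-methylumbelliferyl-β-galactoside hydrolysis (0.1 mM final, pH 5.2) with fluorescent detection.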

UniProt P54803, sequence (P54803 whole entry, looked up): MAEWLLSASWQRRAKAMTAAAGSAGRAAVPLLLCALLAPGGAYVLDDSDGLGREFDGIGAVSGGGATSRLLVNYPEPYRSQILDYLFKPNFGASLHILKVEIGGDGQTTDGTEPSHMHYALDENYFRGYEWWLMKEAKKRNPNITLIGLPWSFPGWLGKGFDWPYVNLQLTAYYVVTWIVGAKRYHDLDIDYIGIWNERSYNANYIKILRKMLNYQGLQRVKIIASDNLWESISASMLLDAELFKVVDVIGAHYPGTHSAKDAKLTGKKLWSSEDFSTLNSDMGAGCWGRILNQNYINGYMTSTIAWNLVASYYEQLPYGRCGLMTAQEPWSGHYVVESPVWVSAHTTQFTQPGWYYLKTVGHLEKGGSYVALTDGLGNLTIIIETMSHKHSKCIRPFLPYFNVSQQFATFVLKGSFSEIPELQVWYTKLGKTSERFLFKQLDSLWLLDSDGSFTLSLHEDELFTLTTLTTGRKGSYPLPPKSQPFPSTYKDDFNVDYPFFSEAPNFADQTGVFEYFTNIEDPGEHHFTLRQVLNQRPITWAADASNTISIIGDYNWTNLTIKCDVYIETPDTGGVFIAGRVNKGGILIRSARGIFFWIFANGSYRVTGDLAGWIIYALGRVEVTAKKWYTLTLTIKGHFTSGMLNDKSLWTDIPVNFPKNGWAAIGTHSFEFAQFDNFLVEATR

activation, inactive:
COc1ccc(Cl)cc1C(=O)NCc1nnnn1-c1ccccc1 -7.46%
COc1nnc(-c2ccc(N3CCCCC3)c(NC(=O)c3ccccc3Cl)c2)c2ccccc12 -18.9%
O=C(Nc1sc2c(c1C(=O)NCc1ccccc1)CCCC2)c1cc(=O)c2ccccc2o1 -13.1%
CCc1ccc(NC(=O)C(=O)NCC(c2cccnc2)N2CCc3ccccc3C2)cc1 (centres undefined) -16.1%
COCc1cc(C)nc2c1C(=O)NC(c1ccc(Br)cc1)N2Cc1ccccc1 (centres undefined) -8%
COC(=O)c1c(NC(=O)COc2ccc(Cl)cc2)sc(C)c1C -7.67%
COc1cccc(N2CCN(C(=O)Cn3nc(C)n4c(cc5c(OC)cccc54)c3=O)CC2)c1 -8.55%
CCc1ccc(-n2nnc(-c3nc(-c4ccc(C)cc4)no3)c2N)cc1 -20.8%
COc1cc(Cl)c(C)cc1NC(=O)Cn1c2ncccc2c(=O)n1-c1ccccc1 -19.9%
CCc1ccc(NC(=O)CSc2nc3c(c(=O)[nH]2)CN(Cc2ccc(C)cc2)CC3)cc1 -15.5%
CCOc1ccccc1C(=O)NCC(c1cccs1)S(=O)(=O)c1ccc(F)c(C)c1 (centres undefined) -9.25%
O=C(NCc1ccc(Cl)cc1)C1CCN(c2ncnc3c2nc2n3CCCCC2)CC1 -6.08%
COc1ccc(Cn2c(=O)n(-c3ccc(OC)cc3)c(=O)c3c2c2cc(OC)ccc2n3C)cc1 -17.8%
CCOC(=O)c1noc2ncnc(N3CCN(c4cccc(C(F)(F)F)c4)CC3)c12 0.837%
CC1CCN(C(=O)Cn2cc(SCC(=O)Nc3ccccc3)c3ccccc32)CC1 -6.01%
COc1cccc(-c2nc(SCC(=O)NCc3ccco3)c3c(=O)n(C)c(=O)n(C)c3n2)c1 -15.1%
COc1ccc(-n2c(SCc3ccccc3F)nc3c([nH]c4ccccc43)c2=O)cc1OC -3.01%
COc1cc(NC(=O)c2c3c(nc4ccccc24)C(=O)N(C2CCCCC2)C3)cc(OC)c1 -15.4%
CCOC(=O)c1c(-c2ccc(C)cc2)csc1NC(=O)c1cc(=O)c2cc(C)cc(C)c2o1 -23%
O=C(CSc1c2c(nc3cc(Cl)ccc13)CCCC2)N1CCN(c2ccccc2)CC1 -16.5%
CCN(CC)S(=O)(=O)c1ccc2c(c1)c(=O)c(C(=O)NCc1ccccc1Cl)cn2C -2.84%
COc1ccc(-c2cc(C)no2)cc1S(=O)(=O)NCc1ccco1 -3.82%
CC(=O)c1ccc(NC(=O)C2=CC(c3ccc(C)cc3)=NS(=O)(=O)N2C)cc1 -14.4%
CCCn1cc(S(=O)(=O)c2ccc(OC)cc2)c(=O)c2cc(F)c(N3CCCC(C)C3)cc21 (centres undefined) -11.4%
Cc1ccc(S(=O)(=O)Cc2nc(-c3ccc(C(=O)NCc4ccccc4C)cc3)oc2C)cc1 2.9%
COc1ccc(Cn2ccn(Cc3cccc(Cl)c3)c(=O)c2=O)cc1 -17.2%
CCOc1ccc(-c2nonc2NC(=O)c2oc3ccc(C)cc3c2C)cc1OCC -14.5%
CCCCCOC(=O)CSc1nc2sc3c(c2c(=O)n1-c1ccccc1)CC(C)(CC)OC3 (centres undefined) -9.81%
O=C(Nc1cc(-c2ccccc2F)nn1-c1ccccc1)c1ccccc1Br -2.95%
O=C(COc1ccccc1F)Nc1c(C(=O)Nc2cccc(F)c2)oc2ccccc12 -11.1%
Cc1ccc(C(=O)Nc2nc3nc(-c4ccccc4)cc(=O)n3[nH]2)cc1 -7.55%
COC(=O)CCCCCn1c(-c2ccccc2)cn2c3c(=O)n(C)c(=O)n(C)c3nc12 -1.59%
CCN(CC)c1ccc(C2C(C(=O)Nc3ccccc3C)=C(C)Nc3ncnn32)cc1 (centres undefined) -6.52%
O=C(NCc1ccccc1Cl)c1c2c(nc3ccccc13)C(=O)N(C1CCCCC1)C2 -19.9%
CCCCC(=O)Nc1ccc(OCc2cc(=O)n3c(C)csc3n2)cc1 -15.1%
Cc1ccc(C)c(N2CCN(CCCNC(=O)c3cnn(-c4ccccc4)c3C3CCN(C(=O)OC(C)(C)C)CC3)CC2)c1 2.77%
CCN(Cc1ccccc1)Cc1c(O)ccc2c(=O)c(-c3ccc(Cl)cc3)c(C(F)(F)F)oc12 -0.184%
Cc1ccn2c(=O)cc(CSc3nnc(C)s3)nc2c1 0.0406%
COc1ccc(OC)c(C(=O)CSc2ncc3c(n2)-c2ccccc2N(Cc2ccccc2C)S3(=O)=O)c1 -10.4%
Cc1cccc(CCn2c(=O)c3ccccc3n(CC(=O)Nc3ccccc3F)c2=O)c1 -1.96%
Cc1cc2c(cc1NC(=O)c1ccccc1Cl)n(C)c(=O)c(=O)n2C -3.42%
Cc1ccc2nc(-c3ccsc3)c(Nc3ccc(Cl)cc3)n2c1 -13.3%
COc1ccc(-c2nnc(SCC(=O)N3CCc4ccccc43)o2)cc1OC -11.4%
CCN(CC)CCCNC(=O)c1cn(CC(C)C)c(=O)c2c1c1ccccc1n2C -10.3%
Cc1ccn2cc(CNC(=O)c3cccc(C(F)(F)F)c3)nc2c1 -2.12%
Cc1cccc(-c2noc(-c3ccccc3OCC(=O)Nc3ccccc3[N+](=O)[O-])n2)c1 -6.33%
COc1ccccc1Nc1c2c(nc3ccc(NC(=O)c4ccccc4F)cc13)CCCC2 -15.7%
CCOC(=O)c1ccc(NC(=O)C(C)Sc2nc(=O)cc(N)n2CCc2ccccc2)cc1 (centres undefined) -7.26%
COc1ccc(OCC(=O)N(Cc2sccc2C)C2CCS(=O)(=O)C2)cc1 (centres undefined) -6.76%
CC(=O)c1cccc(NC(=O)[C@H]2O[C@@H]3OC(C)(C)O[C@@H]3[C@H]3OC(C)(C)O[C@H]32)c1 -17.4%
COc1ccc(-c2nc3scc(CCNS(=O)(=O)c4ccc(Oc5ccccc5)cc4)n3n2)cc1 -12.3%
Cc1ccc(C)c(NC(=O)N2CCN3CCCCC3C2)c1 (centres undefined) -29.3%
COc1ccc(F)cc1S(=O)(=O)Nc1ccc2c(c1)CCCN2C(=O)c1cccs1 16.6%
COc1ccc(C(=O)CCC(=O)Nc2ccc(F)cc2F)cc1 -5.23%
O=C(Nc1ccc(F)cc1F)c1cc(S(=O)(=O)N2CCCCC2)c[nH]1 -6.63%
CCN(CC)C(=O)Cn1c(=O)n(Cc2ccc(C(=O)NCCCOC)cc2)c(=O)c2ccccc21 -9.52%
CCn1c2c(c(=O)n3ncc(C(=O)N4CCN(c5ccc(C(C)=O)cc5)CC4)c13)CN(Cc1ccc(OC)cc1)CC2 -6.37%
Cc1ccc(C)c(N2C(=O)N(Cc3cccc(C(F)(F)F)c3)c3ccccc3S2(=O)=O)c1 5.8%
NS(=O)(=O)c1ccc(NC(=O)COc2ccc(S(=O)(=O)NC3CCCCC3)cc2)cc1 -14.4%
